From patent US20250361279A1 (Hoffmann-La Roche, published 2025)

T1: IL-7 receptor (IL-7R alpha chain and common gamma chain) on human T cells (human, UniProt P16871 21-459; P31785 23-369)
T1 sequence (looked up) 1: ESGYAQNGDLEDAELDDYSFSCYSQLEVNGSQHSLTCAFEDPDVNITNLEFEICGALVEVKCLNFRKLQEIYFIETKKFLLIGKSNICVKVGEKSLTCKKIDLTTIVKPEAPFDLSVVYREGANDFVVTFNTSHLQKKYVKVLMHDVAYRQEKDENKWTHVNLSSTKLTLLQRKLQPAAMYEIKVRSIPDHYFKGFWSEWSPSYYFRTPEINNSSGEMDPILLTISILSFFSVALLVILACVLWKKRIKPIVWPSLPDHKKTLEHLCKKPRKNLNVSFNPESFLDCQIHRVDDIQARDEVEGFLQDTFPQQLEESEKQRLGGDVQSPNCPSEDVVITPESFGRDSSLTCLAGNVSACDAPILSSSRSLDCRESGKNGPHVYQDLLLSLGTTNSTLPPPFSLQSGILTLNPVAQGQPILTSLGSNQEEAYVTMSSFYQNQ
T1 sequence (looked up) 2: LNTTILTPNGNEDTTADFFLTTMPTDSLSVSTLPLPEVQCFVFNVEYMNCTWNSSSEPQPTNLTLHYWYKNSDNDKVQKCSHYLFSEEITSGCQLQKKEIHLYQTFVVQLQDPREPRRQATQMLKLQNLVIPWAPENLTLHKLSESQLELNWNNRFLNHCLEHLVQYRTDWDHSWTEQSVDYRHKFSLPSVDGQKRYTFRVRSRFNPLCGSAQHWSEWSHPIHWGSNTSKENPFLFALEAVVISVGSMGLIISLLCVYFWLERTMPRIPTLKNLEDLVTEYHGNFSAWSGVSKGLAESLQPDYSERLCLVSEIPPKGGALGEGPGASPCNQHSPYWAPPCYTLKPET

B1: P1AH6018 (new PD1-IL7v, fully glycosylated; IL7 K81Q, G85E; (G2SG2)3 linker) (other)
light: DIVMTQSPDSLAVSLGERATINCKASESVDTSDNSFIHWYQQKPGQSPKLLIYRSSTLESGVPDRFSGSGSGTDFTLTISSLQAEDVAVYYCQQNYDVPWTFGQGTKVEIKRTVAAPSVFIFPPSDEQLKSGTASVVCLLNNFYPREAKVQWKVDNALQSGNSQESVTEQDSKDSTYSLSSTLTLSKADYEKHKVYACEVTHQGLSSPVTKSFNRGEC
heavy 1: EVQLLESGGGLVQPGGSLRLSCAASGFSFSSYTMSWVRQAPGKGLEWVATISGGGRDIYYPDSVKGRFTISRDNSKNTLYLQMNSLRAEDTAVYYCVLLTGRVYFALDSWGQGTLVTVSSASTKGPSVFPLAPSSKSTSGGTAALGCLVKDYFPEPVTVSWNSGALTSGVHTFPAVLQSSGLYSLSSVVTVPSSSLGTQTYICNVNHKPSNTKVDKKVEPKSCDKTHTCPPCPAPEAAGGPSVFLFPPKPKDTLMISRTPEVTCVVVDVSHEDPEVKFNWYVDGVEVHNAKTKPREEQYNSTYRVVSVLTVLHQDWLNGKEYKCKVSNKALGAPIEKTISKAKGQPREPQVCTLPPSRDELTKNQVSLSCAVKGFYPSDIAVEWESNGQPENNYKTTPPVLDSDGSFFLVSKLTVDKSRWQQGNVFSCSVMHEALHNHYTQKSLSLSPG
heavy 2: EVQLLESGGGLVQPGGSLRLSCAASGFSFSSYTMSWVRQAPGKGLEWVATISGGGRDIYYPDSVKGRFTISRDNSKNTLYLQMNSLRAEDTAVYYCVLLTGRVYFALDSWGQGTLVTVSSASTKGPSVFPLAPSSKSTSGGTAALGCLVKDYFPEPVTVSWNSGALTSGVHTFPAVLQSSGLYSLSSVVTVPSSSLGTQTYICNVNHKPSNTKVDKKV[sequence of human IgG1 Fc with changes omitted]GGSGGGGSGGGGSGGDCDIEGKDGKQYESVLMVSIDQLLDSMKEIGSNCLNNEFNFFKRHICDANKEGMFLFRAARKLRQFLKMNSTGDFDLHLLQVSEETTILLNCTGQVKGRKPAALGEAQPTKSLEENKSLKEQKKLNDLCFLKRLLQEIKTCWNKILMGTKEH
B2: P1AH6019 (new PD1-IL7v, fully glycosylated; IL7 K81E, G85Q; (G2SG2)3 linker) (other)
light: DIVMTQSPDSLAVSLGERATINCKASESVDTSDNSFIHWYQQKPGQSPKLLIYRSSTLESGVPDRFSGSGSGTDFTLTISSLQAEDVAVYYCQQNYDVPWTFGQGTKVEIKRTVAAPSVFIFPPSDEQLKSGTASVVCLLNNFYPREAKVQWKVDNALQSGNSQESVTEQDSKDSTYSLSSTLTLSKADYEKHKVYACEVTHQGLSSPVTKSFNRGEC
heavy 1: EVQLLESGGGLVQPGGSLRLSCAASGFSFSSYTMSWVRQAPGKGLEWVATISGGGRDIYYPDSVKGRFTISRDNSKNTLYLQMNSLRAEDTAVYYCVLLTGRVYFALDSWGQGTLVTVSSASTKGPSVFPLAPSSKSTSGGTAALGCLVKDYFPEPVTVSWNSGALTSGVHTFPAVLQSSGLYSLSSVVTVPSSSLGTQTYICNVNHKPSNTKVDKKVEPKSCDKTHTCPPCPAPEAAGGPSVFLFPPKPKDTLMISRTPEVTCVVVDVSHEDPEVKFNWYVDGVEVHNAKTKPREEQYNSTYRVVSVLTVLHQDWLNGKEYKCKVSNKALGAPIEKTISKAKGQPREPQVCTLPPSRDELTKNQVSLSCAVKGFYPSDIAVEWESNGQPENNYKTTPPVLDSDGSFFLVSKLTVDKSRWQQGNVFSCSVMHEALHNHYTQKSLSLSPG
heavy 2: EVQLLESGGGLVQPGGSLRLSCAASGFSFSSYTMSWVRQAPGKGLEWVATISGGGRDIYYPDSVKGRFTISRDNSKNTLYLQMNSLRAEDTAVYYCVLLTGRVYFALDSWGQGTLVTVSSASTKGPSVFPLAPSSKSTSGGTAALGCLVKDYFPEPVTVSWNSGALTSGVHTFPAVLQSSGLYSLSSVVTVPSSSLGTQTYICNVNHKPSNTKVDKKV[sequence of human IgG1 Fc with changes omitted]GGSGGGGSGGGGSGGDCDIEGKDGKQYESVLMVSIDQLLDSMKEIGSNCLNNEFNFFKRHICDANKEGMFLFRAARKLRQFLKMNSTGDFDLHLLEVSEQTTILLNCTGQVKGRKPAALGEAQPTKSLEENKSLKEQKKLNDLCFLKRLLQEIKTCWNKILMGTKEH
B3: P1AG0950 (PD1-IL7var18_21, fully glycosylated; IL7 K81E, G85E; 3G4S linker) (other)
light: DIVMTQSPDSLAVSLGERATINCKASESVDTSDNSFIHWYQQKPGQSPKLLIYRSSTLESGVPDRFSGSGSGTDFTLTISSLQAEDVAVYYCQQNYDVPWTFGQGTKVEIKRTVAAPSVFIFPPSDEQLKSGTASVVCLLNNFYPREAKVQWKVDNALQSGNSQESVTEQDSKDSTYSLSSTLTLSKADYEKHKVYACEVTHQGLSSPVTKSFNRGEC
heavy 1: EVQLLESGGGLVQPGGSLRLSCAASGFSFSSYTMSWVRQAPGKGLEWVATISGGGRDIYYPDSVKGRFTISRDNSKNTLYLQMNSLRAEDTAVYYCVLLTGRVYFALDSWGQGTLVTVSSASTKGPSVFPLAPSSKSTSGGTAALGCLVKDYFPEPVTVSWNSGALTSGVHTFPAVLQSSGLYSLSSVVTVPSSSLGTQTYICNVNHKPSNTKVDKKVEPKSCDKTHTCPPCPAPEAAGGPSVFLFPPKPKDTLMISRTPEVTCVVVDVSHEDPEVKFNWYVDGVEVHNAKTKPREEQYNSTYRVVSVLTVLHQDWLNGKEYKCKVSNKALGAPIEKTISKAKGQPREPQVCTLPPSRDELTKNQVSLSCAVKGFYPSDIAVEWESNGQPENNYKTTPPVLDSDGSFFLVSKLTVDKSRWQQGNVFSCSVMHEALHNHYTQKSLSLSPG
heavy 2: EVQLLESGGGLVQPGGSLRLSCAASGFSFSSYTMSWVRQAPGKGLEWVATISGGGRDIYYPDSVKGRFTISRDNSKNTLYLQMNSLRAEDTAVYYCVLLTGRVYFALDSWGQGTLVTVSSASTKGPSVFPLAPSSKSTSGGTAALGCLVKDYFPEPVTVSWNSGALTSGVHTFPAVLQSSGLYSLSSVVTVPSSSLGTQTYICNVNHKPSNTKVDKKV[sequence of human IgG1 Fc with changes omitted]GGGGSGGGGSGGGGSDCDIEGKDGKQYESVLMVSIDQLLDSMKEIGSNCLNNEFNFFKRHICDANKEGMFLFRAARKLRQFLKMNSTGDFDLHLLEVSEETTILLNCTGQVKGRKPAALGEAQPTKSLEENKSLKEQKKLNDLCFLKRLLQEIKTCWNKILMGTKEH
B4: P1AH6020 (new PD1-IL7v, fully glycosylated; IL7 K81Q, G85Q; (G2SG2)3 linker) (other)
light: DIVMTQSPDSLAVSLGERATINCKASESVDTSDNSFIHWYQQKPGQSPKLLIYRSSTLESGVPDRFSGSGSGTDFTLTISSLQAEDVAVYYCQQNYDVPWTFGQGTKVEIKRTVAAPSVFIFPPSDEQLKSGTASVVCLLNNFYPREAKVQWKVDNALQSGNSQESVTEQDSKDSTYSLSSTLTLSKADYEKHKVYACEVTHQGLSSPVTKSFNRGEC
heavy 1: EVQLLESGGGLVQPGGSLRLSCAASGFSFSSYTMSWVRQAPGKGLEWVATISGGGRDIYYPDSVKGRFTISRDNSKNTLYLQMNSLRAEDTAVYYCVLLTGRVYFALDSWGQGTLVTVSSASTKGPSVFPLAPSSKSTSGGTAALGCLVKDYFPEPVTVSWNSGALTSGVHTFPAVLQSSGLYSLSSVVTVPSSSLGTQTYICNVNHKPSNTKVDKKVEPKSCDKTHTCPPCPAPEAAGGPSVFLFPPKPKDTLMISRTPEVTCVVVDVSHEDPEVKFNWYVDGVEVHNAKTKPREEQYNSTYRVVSVLTVLHQDWLNGKEYKCKVSNKALGAPIEKTISKAKGQPREPQVCTLPPSRDELTKNQVSLSCAVKGFYPSDIAVEWESNGQPENNYKTTPPVLDSDGSFFLVSKLTVDKSRWQQGNVFSCSVMHEALHNHYTQKSLSLSPG
heavy 2: EVQLLESGGGLVQPGGSLRLSCAASGFSFSSYTMSWVRQAPGKGLEWVATISGGGRDIYYPDSVKGRFTISRDNSKNTLYLQMNSLRAEDTAVYYCVLLTGRVYFALDSWGQGTLVTVSSASTKGPSVFPLAPSSKSTSGGTAALGCLVKDYFPEPVTVSWNSGALTSGVHTFPAVLQSSGLYSLSSVVTVPSSSLGTQTYICNVNHKPSNTKVDKKV[sequence of human IgG1 Fc with changes omitted]GGSGGGGSGGGGSGGDCDIEGKDGKQYESVLMVSIDQLLDSMKEIGSNCLNNEFNFFKRHICDANKEGMFLFRAARKLRQFLKMNSTGDFDLHLLQVSEQTTILLNCTGQVKGRKPAALGEAQPTKSLEENKSLKEQKKLNDLCFLKRLLQEIKTCWNKILMGTKEH

How the values were obtained:
Assay in all cases: cell-based or functional assay
[1] = target: T1, IL-7 receptor (IL-7R alpha chain and …)
[2] = target: human PD-1 on activated CD4 T cells (human, UniProt Q15116 25-288)
[3] = target: T1, IL-7 receptor (IL-7R alpha chain and …); remark: listed apart in the source

Binder | Potency reduction to PD1-IL7wt: EC50 (PD1+)/EC50 (PD1-IL7wt) [1] [fold] | STAT-5P AUC, PD1+ CD4 T cells [1] | STAT-5P AUC, PD1-blocked CD4 T cells [1] | Cis-delivery: fold increase in EC50, EC50 [with PD1bl]/EC50 [no PD1bl] [2] [fold] | Delta AUC (PD1+ vs PD1bl.) [2] | Percentage of rescued Granzyme B production by Tconv (Treg suppression assay, 6 nM) [3] [%] | Percentage of suppressed Granzyme B production by Tconv (Treg suppression assay, 6 nM) [3] [%]
B1 | 71 | 53 | 17.6 | 36.4 | 35.5 | 53.3 | 46.7
B2 | 46 | 58 | 21.5 | 35.1 | 36.5 | 57.7 | 42.3
B3 | 4.1 | 19.5 | 7.8 | 0.2 | 11.7 |  | 
B4 | 5.7 | 118 | 75.8 | 5.1 | 42.4 |  | 
